The target of assay [1] is T1, Fc (kih)-IFNGR1/2 heterodimer (P1AF8126) (UniProt P15260 18-245; P38484 28-247, limits assumed).
T1 construct: Used as the soluble analyte in SPR; also called Fc (kih)-IFNGR1/R2 heterodimer; IFNGR1/R2; not shown: Fc (kih) chain
T1 sequence (looked up) 1: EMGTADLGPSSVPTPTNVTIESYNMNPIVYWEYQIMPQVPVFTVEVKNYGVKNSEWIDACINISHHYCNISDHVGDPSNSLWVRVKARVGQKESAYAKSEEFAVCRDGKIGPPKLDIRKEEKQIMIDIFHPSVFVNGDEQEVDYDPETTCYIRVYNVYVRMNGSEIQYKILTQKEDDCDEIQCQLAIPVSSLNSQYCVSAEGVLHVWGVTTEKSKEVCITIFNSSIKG
T1 sequence (looked up) 2: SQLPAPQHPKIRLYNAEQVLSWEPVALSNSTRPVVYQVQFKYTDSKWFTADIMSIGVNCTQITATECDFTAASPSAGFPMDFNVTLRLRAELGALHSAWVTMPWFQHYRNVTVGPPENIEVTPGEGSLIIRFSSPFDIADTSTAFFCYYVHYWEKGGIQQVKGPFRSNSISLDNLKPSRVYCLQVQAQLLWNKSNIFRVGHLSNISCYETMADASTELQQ
The assay is described as follows: SPR, compound immobilised, Fc(kih)-IFNGR1/2 heterodimer as analyte; apparent affinity. Here is the method: (§1) The binding behaviour of IFNG variants towards IFNGR1 and IFNGR1/2 was assessed by surface plasmon resonance (SPR). SPR experiments were performed on a Biacore 8K device at 25° C. with HBS-EP as running buffer (0.01 M HEPES pH 7.4, 0.15 M NaCl, 3 mM EDTA, 0.005% Surfactant P20, Biacore, Freiburg/Germany). […] IFNG mutation series compounds were immobilised at a concentration of 25 nM, 80 s contact time and 10 μL/min. Immobilisation levels up to 450 resonance units (RU) were used. Subsequently, decreasing concentrations (800-3.13 nM) of Fc (kih)-IFNGR1 monomer or Fc (kih)-IFNGR1/2 heterodimer were injected as a second analyte with a flow rate of 30 μL/min over 120 seconds and dissociation was monitored for 500 s. Bulk refractive index differences were corrected for by subtracting the response obtained in a reference flow cell, where no protein was immobilised. The affinity constants were derived from the rate constants by fitting to a 1:1 Langmuir binding.
(§2) To measure binding affinities, compounds of the mutation series were immobilised in the flow cell. As a second analyte Fc (kih)-IFNGR1 monomer or Fc (kih)-IFNGR1/R2 heterodimer were passed through the flow cell and binding affinities (KD) were calculated based on observed association and dissociation constants. Already single point mutations reduced the apparent binding affinities towards the receptors compared to the compound with C-terminal KRKRP.
(In SPR one partner is held on a chip, and binding of the other changes the refractive index at the surface.)

Assay [2] deals with T2, Fc (kih)-IFNGR1 monomer (P1AF7104) (UniProt P15260 18-245).
T2 construct: Used as the soluble analyte in SPR; not shown: Fc (kih) part
T2 sequence (P15260 whole entry, species assumed, looked up): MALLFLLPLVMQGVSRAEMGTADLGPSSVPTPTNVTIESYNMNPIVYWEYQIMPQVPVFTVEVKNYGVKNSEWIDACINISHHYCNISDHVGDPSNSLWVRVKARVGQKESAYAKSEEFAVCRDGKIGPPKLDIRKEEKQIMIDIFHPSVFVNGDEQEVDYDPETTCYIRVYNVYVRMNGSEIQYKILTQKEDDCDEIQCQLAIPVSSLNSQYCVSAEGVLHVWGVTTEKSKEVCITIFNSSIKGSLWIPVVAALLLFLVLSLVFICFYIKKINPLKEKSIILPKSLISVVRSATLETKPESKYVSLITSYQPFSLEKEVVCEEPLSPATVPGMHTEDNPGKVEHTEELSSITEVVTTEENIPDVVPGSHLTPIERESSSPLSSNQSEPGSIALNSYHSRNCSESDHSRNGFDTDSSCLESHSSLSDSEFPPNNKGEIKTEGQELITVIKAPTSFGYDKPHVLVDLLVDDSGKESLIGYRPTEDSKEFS
The experiment in a line: SPR, compound immobilised, Fc(kih)-IFNGR1 monomer as analyte; apparent affinity. Here is the method: as §1, §2

In patent US20250333542A1 (Hoffmann-La Roche, published 2025) one finds Kd data, which are given here for six molecules.

B1: P1AF9472 (anti-FAP 4B9 IgG-IFNG, C-terminus AKTGKRSSP) (other)
heavy: EVQLLESGGGLVQPGGSLRLSCAASGFTFSSYAMSWVRQAPGKGLEWVSAIIGSGASTYYADSVKGRFTISRDNSKNTLYLQMNSLRAEDTAVYYCAKGWFGGFNYWGQGTLVTVSSASTKGPSVFPLAPSSKSTSGGTAALGCLVKDYFPEPVTVSWNSGALTSGVHTFPAVLQSSGLYSLSSVVTVPSSSLGTQTYICNVNHKPSNTKVDKKV[human IgG1 Fc with changes skipped]GGGGSGGGGSGGGGSQDPYVKEAENLKKYFNAGHSDVADNGTLFLGILKNWKEESDRKIMQSQIVSFYFKLFKNFKDDQSIQKSVETIKEDMNVKFFNSNKKKRDDFEKLTNYSVTDLNVQRKAIHELIQVMAELSPAAKTGKRSSP
light: EIVLTQSPGTLSLSPGERATLSCRASQSVTSSYLAWYQQKPGQAPRLLINVGSRRATGIPDRFSGSGSGTDFTLTISRLEPEDFAVYYCQQGIMLPPTFGQGTKVEIKRTVAAPSVFIFPPSDEQLKSGTASVVCLLNNFYPREAKVQWKVDNALQSGNSQESVTEQDSKDSTYSLSSTLTLSKADYEKHKVYACEVTHQGLSSPVTKSFNRGEC
notes: Antibody-cytokine fusion, IgG1 P329G LALA, (G4S)3 linker; S in positions 3 and 4 of KRKR
B1: the Kd in assay [1] is 885 nM; in assay [2], 1080 nM.

B2: P1AF9477 (anti-FAP 4B9 IgG-IFNG, C-terminus AKTGKRPRP) (other)
heavy: EVQLLESGGGLVQPGGSLRLSCAASGFTFSSYAMSWVRQAPGKGLEWVSAIIGSGASTYYADSVKGRFTISRDNSKNTLYLQMNSLRAEDTAVYYCAKGWFGGFNYWGQGTLVTVSSASTKGPSVFPLAPSSKSTSGGTAALGCLVKDYFPEPVTVSWNSGALTSGVHTFPAVLQSSGLYSLSSVVTVPSSSLGTQTYICNVNHKPSNTKVDKKV[human IgG1 Fc with changes skipped]GGGGSGGGGSGGGGSQDPYVKEAENLKKYFNAGHSDVADNGTLFLGILKNWKEESDRKIMQSQIVSFYFKLFKNFKDDQSIQKSVETIKEDMNVKFFNSNKKKRDDFEKLTNYSVTDLNVQRKAIHELIQVMAELSPAAKTGKRPRP
light: EIVLTQSPGTLSLSPGERATLSCRASQSVTSSYLAWYQQKPGQAPRLLINVGSRRATGIPDRFSGSGSGTDFTLTISRLEPEDFAVYYCQQGIMLPPTFGQGTKVEIKRTVAAPSVFIFPPSDEQLKSGTASVVCLLNNFYPREAKVQWKVDNALQSGNSQESVTEQDSKDSTYSLSSTLTLSKADYEKHKVYACEVTHQGLSSPVTKSFNRGEC
notes: Antibody-cytokine fusion, IgG1 P329G LALA, (G4S)3 linker; P in position 3 of KRKR
In the case of B2, the Kd in assay [1] came out at 312 nM; in assay [2], 539 nM.

B3: P1AF9475 (anti-FAP 4B9 IgG-IFNG, C-terminus AKTGPRKRP) (other)
heavy: EVQLLESGGGLVQPGGSLRLSCAASGFTFSSYAMSWVRQAPGKGLEWVSAIIGSGASTYYADSVKGRFTISRDNSKNTLYLQMNSLRAEDTAVYYCAKGWFGGFNYWGQGTLVTVSSASTKGPSVFPLAPSSKSTSGGTAALGCLVKDYFPEPVTVSWNSGALTSGVHTFPAVLQSSGLYSLSSVVTVPSSSLGTQTYICNVNHKPSNTKVDKKV[human IgG1 Fc with changes skipped]GGGGSGGGGSGGGGSQDPYVKEAENLKKYFNAGHSDVADNGTLFLGILKNWKEESDRKIMQSQIVSFYFKLFKNFKDDQSIQKSVETIKEDMNVKFFNSNKKKRDDFEKLTNYSVTDLNVQRKAIHELIQVMAELSPAAKTGPRKRP
light: EIVLTQSPGTLSLSPGERATLSCRASQSVTSSYLAWYQQKPGQAPRLLINVGSRRATGIPDRFSGSGSGTDFTLTISRLEPEDFAVYYCQQGIMLPPTFGQGTKVEIKRTVAAPSVFIFPPSDEQLKSGTASVVCLLNNFYPREAKVQWKVDNALQSGNSQESVTEQDSKDSTYSLSSTLTLSKADYEKHKVYACEVTHQGLSSPVTKSFNRGEC
notes: Antibody-cytokine fusion, IgG1 P329G LALA, (G4S)3 linker; P in position 1 of KRKR
As to B3, the values for the Kd in assay [1] and in assay [2] were 320 nM and 643 nM, respectively.

B4: P1AF9474 (anti-FAP 4B9 IgG-IFNG, C-terminus AKTGKSKSP) (other)
heavy: EVQLLESGGGLVQPGGSLRLSCAASGFTFSSYAMSWVRQAPGKGLEWVSAIIGSGASTYYADSVKGRFTISRDNSKNTLYLQMNSLRAEDTAVYYCAKGWFGGFNYWGQGTLVTVSSASTKGPSVFPLAPSSKSTSGGTAALGCLVKDYFPEPVTVSWNSGALTSGVHTFPAVLQSSGLYSLSSVVTVPSSSLGTQTYICNVNHKPSNTKVDKKV[human IgG1 Fc with changes skipped]GGGGSGGGGSGGGGSQDPYVKEAENLKKYFNAGHSDVADNGTLFLGILKNWKEESDRKIMQSQIVSFYFKLFKNFKDDQSIQKSVETIKEDMNVKFFNSNKKKRDDFEKLTNYSVTDLNVQRKAIHELIQVMAELSPAAKTGKSKSP
light: EIVLTQSPGTLSLSPGERATLSCRASQSVTSSYLAWYQQKPGQAPRLLINVGSRRATGIPDRFSGSGSGTDFTLTISRLEPEDFAVYYCQQGIMLPPTFGQGTKVEIKRTVAAPSVFIFPPSDEQLKSGTASVVCLLNNFYPREAKVQWKVDNALQSGNSQESVTEQDSKDSTYSLSSTLTLSKADYEKHKVYACEVTHQGLSSPVTKSFNRGEC
notes: Antibody-cytokine fusion, IgG1 P329G LALA, (G4S)3 linker; S in positions 2 and 4 of KRKR
Turning to B4, the Kd was determined as 864 nM in assay [1] and 4560 nM in assay [2].

B5: P1AF9473 (anti-FAP 4B9 IgG-IFNG, C-terminus AKTGSRSRP) (other)
heavy: EVQLLESGGGLVQPGGSLRLSCAASGFTFSSYAMSWVRQAPGKGLEWVSAIIGSGASTYYADSVKGRFTISRDNSKNTLYLQMNSLRAEDTAVYYCAKGWFGGFNYWGQGTLVTVSSASTKGPSVFPLAPSSKSTSGGTAALGCLVKDYFPEPVTVSWNSGALTSGVHTFPAVLQSSGLYSLSSVVTVPSSSLGTQTYICNVNHKPSNTKVDKKV[human IgG1 Fc with changes skipped]GGGGSGGGGSGGGGSQDPYVKEAENLKKYFNAGHSDVADNGTLFLGILKNWKEESDRKIMQSQIVSFYFKLFKNFKDDQSIQKSVETIKEDMNVKFFNSNKKKRDDFEKLTNYSVTDLNVQRKAIHELIQVMAELSPAAKTGSRSRP
light: EIVLTQSPGTLSLSPGERATLSCRASQSVTSSYLAWYQQKPGQAPRLLINVGSRRATGIPDRFSGSGSGTDFTLTISRLEPEDFAVYYCQQGIMLPPTFGQGTKVEIKRTVAAPSVFIFPPSDEQLKSGTASVVCLLNNFYPREAKVQWKVDNALQSGNSQESVTEQDSKDSTYSLSSTLTLSKADYEKHKVYACEVTHQGLSSPVTKSFNRGEC
notes: Antibody-cytokine fusion, IgG1 P329G LALA, (G4S)3 linker; S in positions 1 and 3 of KRKR
For B5, the Kd is 793 nM in assay [1] and 1100 nM in assay [2].

B6: P1AF9476 (anti-FAP 4B9 IgG-IFNG, C-terminus AKTGKPKRP) (other)
heavy: EVQLLESGGGLVQPGGSLRLSCAASGFTFSSYAMSWVRQAPGKGLEWVSAIIGSGASTYYADSVKGRFTISRDNSKNTLYLQMNSLRAEDTAVYYCAKGWFGGFNYWGQGTLVTVSSASTKGPSVFPLAPSSKSTSGGTAALGCLVKDYFPEPVTVSWNSGALTSGVHTFPAVLQSSGLYSLSSVVTVPSSSLGTQTYICNVNHKPSNTKVDKKV[human IgG1 Fc with changes skipped]GGGGSGGGGSGGGGSQDPYVKEAENLKKYFNAGHSDVADNGTLFLGILKNWKEESDRKIMQSQIVSFYFKLFKNFKDDQSIQKSVETIKEDMNVKFFNSNKKKRDDFEKLTNYSVTDLNVQRKAIHELIQVMAELSPAAKTGKPKRP
light: EIVLTQSPGTLSLSPGERATLSCRASQSVTSSYLAWYQQKPGQAPRLLINVGSRRATGIPDRFSGSGSGTDFTLTISRLEPEDFAVYYCQQGIMLPPTFGQGTKVEIKRTVAAPSVFIFPPSDEQLKSGTASVVCLLNNFYPREAKVQWKVDNALQSGNSQESVTEQDSKDSTYSLSSTLTLSKADYEKHKVYACEVTHQGLSSPVTKSFNRGEC
notes: Antibody-cytokine fusion, IgG1 P329G LALA, (G4S)3 linker; P in position 2 of KRKR
In the case of B6, the values for the Kd in assay [1] and in assay [2] were 456 nM and 1020 nM, respectively.
